# Experimental data: article PMC9574860, “Chemical Toolkit for PARK7: Potent, Selective, and High-Throughput” (Journal of Medicinal Chemistry, 2022)
# The whole screen tested about 7,900 compounds, of which about 400 (5.1%) showed an effect of 50% or more. The list shows a part of the results.
# Target: Parkinson's disease protein 7 (PARK7/DJ1) (human, UniProt Q99497)
# Experiment: primary screen, percent inhibition; read as competition with a fluorescent probe by fluorescence polarization; higher = more effect of the substance
# Settings: 100 µM
# How it was run: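 Fluorescence-polarization probe displacement (JYQ-107, 20 nM final, 2 h) after 2 h preincubation of PARK7 (0.2 μM final) with each fragment at 100 μM final. Read-out ex/em 480/520 nm; remaining activity derived from FP signal loss relative to reference controls.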
# Sequence of Parkinson's disease protein 7 (PARK7/DJ1) (Q99497 whole entry, looked up): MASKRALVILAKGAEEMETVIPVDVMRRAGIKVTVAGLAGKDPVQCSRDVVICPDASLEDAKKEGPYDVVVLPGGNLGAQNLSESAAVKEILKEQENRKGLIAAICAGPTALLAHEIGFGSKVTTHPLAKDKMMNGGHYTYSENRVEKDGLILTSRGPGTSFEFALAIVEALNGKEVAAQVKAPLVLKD
row,Compound,Inhibition % [%]
1,COc1ccc(-c2nc(C#N)c(NC(C)C)o2)cc1,4.9
2,CC1(C)C(=O)Nc2ccc(C(=O)CCl)cc21,32.9
3,CC(=O)NCCCN(C)c1nc2ccccn2c1C#N,15.4
4,C=CC(=O)NC1CN(C2CC2)CC1C (centres unmarked),11.3
5,COC(OC)c1ccnc(C)n1,6.21
6,CC1(C)OB(c2ccc(S(F)(F)(F)(F)F)cc2)OC1(C)C,9.09
7,O=C(CCl)Nc1cccc(S(=O)(=O)N=C2CCCN2)c1,18.3
8,C=CC(=O)NCC1(c2ccc(F)cc2)CC1,9.53
9,CC1(C)OB(c2ccc(C3CC(F)(F)C3(F)F)cc2)OC1(C)C (centres unmarked),2.09
10,CN(c1ccc(C(=O)CCl)cc1)S(C)(=O)=O,94.3
11,CC1CC1C(=O)N1CCCCC1CCS(=O)(=O)F (centres unmarked),57.7
12,C=CC(=O)NCC1CCCc2ccccc21 (centres unmarked),4.88
13,Cc1cnccc1B1OC(C)(C)C(C)(C)O1,2.89
14,C=CC(=O)Nc1cccc(N2CCCNC2=O)c1,2.97
15,N#Cc1ccnc(C(F)(F)F)c1,14.9
16,C=CC(=O)N1CCN(C(C)c2ccccc2Cl)CC1 (centres unmarked),7.63
17,C=CC(=O)NCC1(N2CCSCC2)CCCC1,9.29
18,C#CC(=O)NCc1ccccc1,-1.57
19,Cc1csc2ccc(B(O)O)cc12,5.69
20,C=CC(=O)N1CCOc2cc(C)ccc21,11.4
21,CS(=O)(=O)N1CCC(CCl)C1 (centres unmarked),-0.704
22,C=CC(=O)N1CCC(c2ccccn2)CC1,5.49
23,C=CC(=O)NCC1(COC)OCCc2ccccc21 (centres unmarked),6.32
24,O=C(Nc1ccccc1Cl)N1CCC(C2OCCO2)CC1,12.8
25,C=CC(=O)N(C1CC1)C1CCS(=O)(=O)C1 (centres unmarked),10.3

row,Compound,Inhibition % [%]
1,CCc1ccc(S(=O)(=O)n2cccn2)cc1,14.7
2,N#Cc1nccnc1Oc1ccc(Cl)cc1,-0.867
3,O=C1c2ccccc2C(=O)N1CCS(=O)(=O)F,22.5
4,CN(C)S(=O)(=O)c1ccccc1CNC(=O)CCl,4.96
5,C=CC(=O)NC(C)c1cccc(N2CCCC2)c1 (centres unmarked),24
6,CCOc1ccc(S(=O)(=O)n2ccnc2)cc1C(C)(C)C,3.5
7,COCC(C)NC(=O)C(C#N)=Cc1occc1C (centres unmarked),5.2
8,C=CC(=O)N1CCC[C@H]1C(=O)N(C)C,18.6
9,Cc1nccn1CCCl.Cl,2.86
10,Cc1cc(C=C(C#N)C(N)=O)c(C)n1Cc1ccco1,7.44
11,CS(=O)(=O)C(C#N)=Cc1cnn(-c2ccccc2)c1,10.2
12,C=CC(=O)N1CCN(C)CC1,0.116
13,CC1(C)OB(c2c(F)cc(F)cc2F)OC1(C)C,2.48
14,CCN(C#N)CCN1CC2CCCN2CC1C (centres unmarked),17.2
15,O=C(CCl)NCc1ccc(N2CCOCC2)c(F)c1,10.8
16,Cc1ccc(NC(=O)NC(=O)CCl)cc1C,3.45
17,Cl.Cn1nccc1C=CC(=O)N1CCCC(N)C1 (centres unmarked),15.1
18,Cc1ccc(C=CC(=O)N2CCCn3ncnc32)o1,4.42
19,C=CC(=O)NCC1CCC(F)(F)CC1,5.38
20,Cn1nccc1C=C(C#N)c1ccccn1,6.39
21,O=C(c1ccccc1)N1CCN(C(=O)n2ccnc2)CC1,2.18
22,O=C(O)CNS(=O)(=O)C=Cc1ccccc1,84.3
23,O=C(CCl)N(c1ccc(F)cc1)C1C=CS(=O)(=O)C1 (centres unmarked),4.62
24,N#CC(=Cc1csc(-c2ccco2)n1)C(=O)O,15
25,CC(C)N1CCN(c2nc3ccccn3c2C#N)CC1=O,0.891

row,Compound,Inhibition % [%]
1,O=C(C=Cc1ccc2ccccc2n1)N1CCCS1(=O)=O,10.9
2,CCc1nc(C)cn1S(=O)(=O)c1cc(C)ccc1OC,2.65
3,CN(CC(=O)Nc1ccc(Cl)cc1)C(=O)CCl,75.9
4,CC(NC(=O)CCl)c1ccc2c(c1)CC(=O)N2 (centres unmarked),9.9
5,O=C(CN1C(=O)CCC1=O)Nc1cccc(Cl)c1,7.52
6,CC(NS(=O)(=O)C=Cc1ccccc1)c1ccccn1 (centres unmarked),0.0636
7,N#CC(=Cc1ccc(F)c(F)c1)c1ccno1,5.66
8,CN1CCN(c2ccc(C#N)nc2)CC1,7.16
9,Cc1ccc(N2C(=O)CN=C2S)cc1,3.09
10,CCC1CN(C(=O)c2cccnc2S)CCO1 (centres unmarked),6.34
11,Cc1cc(C)n(-c2ccc(B(O)O)cc2)n1,6.09
12,CC(C)N=c1ccccn1C(=O)CN1CCSC1=O,10.2
13,CCc1ccc(C=C(C#N)S(C)(=O)=O)cc1,13.1
14,Cc1ccc(S(=O)(=O)n2cccn2)c(C)c1,5.4
15,O=C1OCCC1Sc1nnc2c(n1)[nH]c1ccccc12 (centres unmarked),9.57
16,CSc1ccc(C#N)nc1,5.17
17,C=CC(=O)Nc1ccc(F)cc1,-2.06
18,CCc1ccc(NC(=O)CCl)cc1,99.1
19,O=C1OCCC1Sc1ccc2ccccc2n1 (centres unmarked),-0.865
20,C=CC(=O)N1CCCC(CC(N)=O)C1 (centres unmarked),12.1
21,C=CC(=O)Nc1ccc2c(c1)CS(=O)(=O)C2,9.66
22,N#Cc1ccc(Cl)cc1NC(=O)CCl,0.348
23,C=CC(=O)NC1(CO)Cc2ccccc2C1,10.4
24,CCc1nc(C)cn1S(=O)(=O)c1cc(F)ccc1OC,16.1
25,Cc1ccc(C2=NN(C(=O)CCl)C(c3cccs3)C2)o1 (centres unmarked),1.69

row,Compound,Inhibition % [%]
1,O=C(CCl)c1ccc(F)c(F)c1,22.1
2,Cc1ccc(C)c(C=C(C#N)S(C)(=O)=O)c1,-1.36
3,O=C(CCl)NC(=O)CCSc1ccccc1,8.57
4,O=c1n(CCCl)nc2ccccn12,3.05
5,C=CC(=O)Nc1cccc(CN2CCCC2=O)c1,10.1
6,CCOc1cc(C)c(Cl)cc1S(=O)(=O)n1cccn1,-3.16
7,O=C1CC(c2ccccc2)N1 (centres unmarked),7.05
8,CC1(NC(=O)CCl)CCS(=O)(=O)C1 (centres unmarked),2.17
9,O=C(CCl)Nc1ccc(Cl)c(Cl)c1,63
10,C=CC(=O)NCC1(N2CCOCC2)CCSC1 (centres unmarked),9.48
11,C=C(Cl)CSc1ncnc2[nH]cnc12,3.58
12,Cc1ccc(C2=NN(C(=O)CCl)C(c3ccco3)C2)cc1 (centres unmarked),9.14
13,C=CC(=O)N1Cc2nc(C)nc(O)c2C1,9.29
14,Cl.O=C(CCl)Nc1cccc(CN2CCSCC2)c1,13.6
15,Cn1cc(CCCl)cn1,-0.892
16,NC(=O)c1ccc(NC(=O)CCCl)cc1,4.37
17,CCNc1cnc(C#N)cn1,8
18,CN(C(=O)c1cc(C(N)=O)cs1)C1CC(C)(C)OC1=O (centres unmarked),7.6
19,C=CC(=O)NC1CCSC2(CCC2)C1 (centres unmarked),13.5
20,NS(=O)(=O)C=Cc1ccccc1,9.94
21,C=CCNC(=O)C(C#N)=Cc1ccccc1F,9.92
22,CC(=O)NCc1ccc(C(=O)CCl)cc1,77.1
23,CC1CC1C(=O)N1CCC(CS(=O)(=O)F)CC1 (centres unmarked),25.9
24,OB(O)c1cc(F)ccc1OCc1ccncc1,3.85
25,C=CC(=O)NCC1=CCCCC1,9.18

row,Compound,Inhibition % [%]
1,C=CC(=O)N(C)CC(=O)Nc1cc(C)c(=O)n(C)c1,54.5
2,Cc1cc(Cn2c(-c3ccccn3)noc2=O)on1,8.09
3,COc1cc(OC(F)F)ccc1B1OC(C)(C)C(C)(C)O1,-1.65
4,N#Cc1cc(C(F)(F)F)cc(Cl)n1,7.91
5,CCN(CCC#N)S(=O)(=O)C=Cc1ccc(Cl)cc1,31
6,CCc1ccc(OC)c(S(=O)(=O)n2cccn2)c1,9.73
7,O=C(Cc1ccc2c(c1)COC2)Nc1cccc(S(=O)(=O)F)c1,97.6
8,CC1(C)OB(c2cncc(OCCCN3CCCC3)c2)OC1(C)C,7.53
9,O=C(C1CCOCC1)N1CCOC(CS(=O)(=O)F)C1 (centres unmarked),13.3
10,C=CC(=O)NCc1cc(-c2ccccc2)on1,16.5
11,CCc1ccnc(C#N)c1,4
12,COc1cc(S(=O)(=O)n2ccc(C)n2)ccc1Cl,17.7
13,CC(C)N(C(=O)Cn1cnc(C#N)n1)C1CCCCC1,0.146
14,Cl.O=S(=O)(F)CCNc1ccc(Cl)cc1,66
15,Cc1cc(C)cc(-c2nnc(SC3CCOC3=O)o2)c1 (centres unmarked),36.4
16,O=C(CCl)NCC1CCC1,12.8
17,CC1(C)OB(c2ccc(S(N)(=O)=O)c(Cl)c2)OC1(C)C,2.85
18,CC1(C)OB(CC2CC3(CCNC3)C2)OC1(C)C.Cl (centres unmarked),0.986
19,CC1(C)OB(C2CCCNC2)OC1(C)C.Cl (centres unmarked),21.4
20,N#Cc1ccnc(S)c1,67
21,C=CC(=O)NC1CCCN(c2cnn(C)c2)C1 (centres unmarked),31.2
22,Cc1ccc(C=CC(=O)N2CCN(S(C)(=O)=O)CC2)o1,16.4
23,O=C(CCl)Nc1nnc(C2CCCO2)o1 (centres unmarked),-4.86
24,O=c1[nH]c(S)nc2cc(Cl)ccc12,6.16
25,N#Cc1nccnc1N1CC=C(c2ccccc2F)CC1,-0.449
